# Measurements published in PubChem BioAssay AID1347417 (National Center for Advancing Translational Sciences (NCATS), 2020).
# Screen size: about 120,000 compounds; about 5,300 (4.4%) were called active. The inconclusive results got no clear call from the source; some entries with a clear call stand among them for comparison. The call rests on the fitted dose curve; in most records, active means well fitted inhibition curve with a large enough effect; inconclusive means small, poorly fitted or top-dose-only effect; inactive means no such curve, though single readings can be large or run the other way. Potencies of inconclusive entries are doubtful fits and often do not repeat.
# Assay: qHTS Primary assay for Inhibitors of Plasmodium falciparum Dd2 growth in vitro; further: nearly all actives have a fitted effect of over 65% in size;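 on activity, negative = inhibition: plate controls were DMSO vehicle for no effect and reference drug for full effect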
# Details: P. falciparum Dd2 growth, SYBR Green, 72 h; activity, negative = inhibition: at 28.9 µM (top of the series) unless noted; series mostly up to 28.9 µM
# Method in brief: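 Readout: SYBR Green fluorescence, 485 nm excitation, 535 nm emission, after ~16 h lysis at 37C. Before that, Dd2-infected red cells (2.5% hematocrit) grew 72 h with compound, 29 uM top final concentration.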
# Potency means the concentration at half of the fitted maximal effect; tags describe the fitted curve by direction and shape.
SMILES,Potency,"activity, negative = inhibition",outcome
Cc1cnc(C(=O)N[C@@H]2CCC[C@@H]2C(=O)N2CCN(CC(C)C)CC2)cn1,"inconclusive: 7.94 µM [inhibitor, partial curve]",–,–
CC(=O)C1=C(c2ccc(C)cc2)N(C(C)=O)n2c(nnc2-c2ccccc2)S1,active: 7.94 µM,–,–
Cc1ccccc1CC(=O)NCc1nnc2cc(-c3nc(C4CC4)no3)ccn12,"inconclusive: 1.41 µM [inhibitor, partial curve]",–,–
CCN1CC(CN(C)Cc2nc(Cc3cccc(F)c3)no2)CC1=O (centres undefined),–,inactive: 2.89%,–
COc1ccc(S(=O)(=O)NCC(c2ccc(N(C)C)cc2)N2CCCC2)cc1F (centres undefined),"inconclusive: 10 µM [inhibitor, single point]",–,–
Cc1cc(C[C@@H]2COC[C@@H]2NC(=O)c2ccc(-c3noc(C4CC4)n3)cc2)on1,–,inactive: -8.23%,–
Cc1ccc(-c2cccc(CN3C4CCC3CN(C(=O)Nc3ccccc3F)C4)c2)c(C)c1,–,inactive: -18%,–
COc1ccc2nc(C[C@@H]3C[C@@H](C(C)C)[C@H](CNC4CCCCC4)C=C3C)[nH]c2c1,active: 2.82 µM,–,–
Cc1cnc(C(=O)N2CC(N(C)Cc3cccnc3)C2)cn1,–,inactive: 1.4%,–
CCCNC(=O)C1CCC(Cn2c(=O)c3sccc3n(CC(=O)N3CCCC(C)C3)c2=O)CC1 (centres undefined),"inconclusive: 10 µM [inhibitor, single point]",–,–
O=S(=O)(c1ccccc1C(F)(F)F)N1CCC2(CCCNC2)C1 (centres undefined),active: 7.94 µM,–,–
CC(C)NC(=O)N1CCC2(CC1)CN(C(=O)C1CCN(C)CC1)Cc1ccccc1O2,–,inactive: -8.64%,–
Cc1ccc(Nc2c(-c3ccc(N4CCOCC4)cc3)nc3ccc(Cl)cn23)cc1,–,inactive: 47.1%,–
CCOc1ccc(C2c3c(oc4ccccc4c3=O)C(=O)N2Cc2ccc3c(c2)OCO3)cc1 (centres undefined),"inconclusive: 1 µM [inhibitor, partial curve, poor fit]",–,–
Cc1cc2c(cc1S(=O)(=O)N1CCC(C(N)=O)CC1)OCC(=O)N2,–,inactive: 18.7%,–
O=C(NCc1cccc(F)c1)c1cnc2n1CCN(CCc1ccccc1)CC2,–,inactive: 28.2% [at 44.1 µM],–
COc1cc(Cl)ccc1C(=O)N1CCC(N2CC3CC(C2)[C@H]2CCCC(=O)N2C3)CC1 (some centres undefined),–,inactive: -14.1%,–
COc1ccc([C@H]2CN(c3nnnn3-c3ccccc3)C[C@@H]2N)cc1,"inconclusive: 11.2 µM [inhibitor, single point]",–,–
COc1ccc(OC)c(NC(=O)Cn2c(-c3ccccc3)nc(C)c(CCO)c2=O)c1,"inconclusive: 0.355 µM [inhibitor, partial curve, poor fit]",–,–
Oc1ccc(-c2nc(C3CC3)nc3c2CCN(CC2CCCCC2)CC3)cc1,"inconclusive: 0.447 µM [inhibitor, full curve, poor fit]",–,–
Cc1ccc(C)c(C(=O)N2CC(C(=O)NC3CCCCC3)C3(CCOCC3)C2)c1 (centres undefined),–,inactive: 2.42%,–
Cc1cccc(OCC(=O)NCC2(N3CCN(C)CC3)CCCCC2)c1,"inconclusive: 1 µM [inhibitor, full curve, poor fit]",–,–
Cc1ccc2oc([C@H]3CCN(Cc4ccc(N(C)C)cc4)C3)nc2c1,–,–,inactive [at 44.1 µM]

SMILES,Potency,"activity, negative = inhibition",outcome
N#CCn1nc2n(c1=O)CCN(C(=O)c1cccc3[nH]ccc13)CC2,–,inactive: 9.47%,–
COc1ccc(CN2CCC3(CC2)CC(=O)c2ccccc2O3)cc1,"inconclusive: 3.55 µM [inhibitor, partial curve, poor fit]",–,–
O=[S+]([O-])(c1ccccc1)c1nnn2c1nc(N1CCC(F)CC1)c1ccccc12,"inconclusive: 7.94 µM [inhibitor, single point]",–,–
COc1ccc(CCc2nc3nccc(-c4ccsc4)n3n2)cc1,"inconclusive: 12.6 µM [inhibitor, partial curve, poor fit]",–,–
COc1ccccc1N1CCN(C(=O)C[C@@H]2O[C@H](CNC(=O)c3ccco3)[C@@H](O)[C@H]2O)CC1,–,inactive: 4.34%,–
COc1ccc(NC(=O)CSc2nc3ccccc3n2CC(=O)Nc2cccc(C)c2C)cc1,–,inactive: 2.14%,–
CC(C)C[C@@H](NC(=O)C1=C[C@@H](NC(=O)Nc2ccc(OC(F)(F)F)cc2)[C@@H](O)[C@H](O)C1)C(N)=O,–,inactive: 1.09%,–
CCCCCC(=O)Nc1nc2c(s1)C[C@@H]1[C@](C)(CO)[C@H](O)CC[C@@]1(C)[C@@H]2CC(=O)Nc1ccccc1,"inconclusive: 1 µM [inhibitor, full curve, poor fit]",–,–
O=C1CC(c2ccccc2)N(Cc2ccncc2)CCCN(C(=O)CN2CCCCCC2)CCN1 (centres undefined),"inconclusive: 17.8 µM [inhibitor, single point]",–,–
COc1cccc(NC(=O)NC[C@H]2O[C@@H](CC(=O)N3CCN(c4ccc(F)cc4)CC3)[C@H](O)[C@@H]2O)c1,"inconclusive: 7.08 µM [inhibitor, partial curve, poor fit]",–,–
Cc1ccc(C(=O)N2CCC(Oc3ncccc3C(=O)N3CCCCC3)C2)cc1F (centres undefined),–,inactive: -2%,–
COc1ccc(Nc2ncc(-c3ccccc3OC)c3c2OCC3)cn1,"inconclusive: 11.2 µM [inhibitor, single point]",–,–
COc1ccccc1OCCn1c(NC(=O)c2ccccc2)nc2ccccc21,"inconclusive: 14.1 µM [inhibitor, single point]",–,–
COc1cccc(CN2CCCC3(COc4ccccc4C(=O)N3)C2)c1 (centres undefined),active: 11.2 µM,–,–
Cc1ccc(Cl)cc1N1CCN(C(=O)c2cnn(-c3ccc(Cl)cc3)c2C2CCNCC2)CC1,active: 10 µM,–,–
CCc1nncn1C1CCN(C(=O)c2ccc(C)c(C)c2)CC1,"inconclusive: 2 µM [inhibitor, partial curve, poor fit]",–,–
CC(C)c1cc(CNC(=O)c2ccc(OC3CCN(C(=O)C4CC4)CC3)cc2)on1,"inconclusive: 20 µM [inhibitor, single point]",–,–
Cc1cc(CN2CC3ON=C(C(=O)O)C3C2)cc(C)n1 (centres undefined),–,inactive: 22.1% [at 44.1 µM],–
O=C1[C@H]2CN(Cc3ccc(Br)cc3)C[C@H]2C(=O)N1Cc1ccc2c(c1)OCO2,–,inactive: -14.6%,–
Cc1ccc(CNC(=O)Cn2c(N3CCCCC3)nc(C)c(C)c2=O)cc1,"inconclusive: 2.24 µM [inhibitor, single point]",–,–
O=C1NC(=O)C(c2ccc(-c3ccc4nc[nH]c(=O)c4c3)cc2)N1 (centres undefined),"inconclusive: 11.2 µM [inhibitor, partial curve, poor fit]",–,–
COCCNC(=O)Cc1c[nH]c2ncc(-c3ccccc3)cc12,–,inactive: -29.9% [at 44.1 µM],–
O=C1NC2(CCCN(C(=O)Cc3ccccc3)C2)Oc2ccccc21 (centres undefined),–,–,inactive [at 44.1 µM]

SMILES,Potency,"activity, negative = inhibition",outcome
CCCc1noc(-c2ccn3c(CNC(=O)c4cccc(Cl)c4)nnc3c2)n1,"inconclusive: 0.708 µM [inhibitor, full curve]",–,–
Cc1cccc(-n2ncc3c2CCCC3NC(=O)CN2CCNC(=O)C2)c1C (centres undefined),–,inactive: -4%,–
O=c1c2sccc2n(Cc2cc(=O)n3ccccc3n2)c(=O)n1-c1cc(F)ccc1F,–,inactive: -0.661%,–
CCCCNC(=O)c1cccc2c1CCN2S(=O)(=O)c1cccc(C)c1,"inconclusive: 1 µM [inhibitor, full curve, poor fit]",–,–
COC(=O)c1c(SC)nc2ccccc2c1OCc1ccc(Br)cc1,–,–,inactive
Cc1nc(C2(C)CCN(C(=O)c3ccc(Cc4c(C)noc4C)o3)CC2)no1,"inconclusive: 4.47 µM [inhibitor, partial curve]",–,–
CCC(CC)C(=O)N1C[C@@H](CO)[C@H](c2nc(COC)no2)C1,–,inactive: 17.9%,–
COc1cc(OC)cc(C(=O)Nc2cc(-c3nc4ccccc4[nH]3)ccc2C)c1,"inconclusive: 10 µM [inhibitor, single point]",–,–
O=C(NCc1nnc2ccc(-c3ccc(F)cc3)nn12)c1cc(Cl)ccc1F,–,–,inactive
CCn1c(C)c(C)c2cc(C(=O)NCCCN3CCCCC3C)ccc21 (centres undefined),"inconclusive: 17.8 µM [inhibitor, single point]",–,–
CCC1=C(C(=O)OC)C(c2ccccc2)N2C(CC(=O)NCCCN3CCCC3=O)=CSC2=N1 (centres undefined),–,–,inactive
Cc1nn(Cc2ccccc2)c(C)c1[C@@H]1C=C[C@@H](NC(=O)c2ccc3c(c2)OCO3)C1,"inconclusive: 3.98 µM [inhibitor, partial curve, poor fit]",–,–
COc1ccc(-n2cc(C(=O)N(CCN(C)C)Cc3ccccc3)c3ccccc3c2=O)cc1,"inconclusive: 11.2 µM [inhibitor, single point]",–,–
OCC1(Cc2cccc(Cl)c2)CCCN(Cc2nc(-c3ccc(F)cc3)cs2)C1 (centres undefined),"inconclusive: 17.8 µM [inhibitor, single point]",–,–
CCN(CC)Cc1nc(C2(O)CCN(C(=O)Nc3ccc(F)cc3)CC2)cs1,"inconclusive: 31.6 µM [inhibitor, single point]",–,–
COc1ccc(C(=O)NC[C@H]2Cn3c(-c4ccc(Cl)cc4)cnc3CO2)cc1,"inconclusive: 31.6 µM [inhibitor, single point]",–,–
CCN1CCN(C(=O)c2ccc3c(c2)N(Cc2cccc(Cl)c2)C(=O)c2ccccc2S3=O)CC1 (centres undefined),"inconclusive: 17.8 µM [inhibitor, single point]",–,–
Cc1ccc(C)c(OCCn2c(C3CC(=O)N(Cc4ccc(F)cc4)C3)nc3ccccc32)c1 (centres undefined),"inconclusive: 11.2 µM [inhibitor, single point]",–,–
COCc1cccc(C(=O)NC2CC(c3nnc(CN(C)C)n3C)C2)n1 (centres undefined),–,inactive: -7.08%,–
O=S(=O)(c1ccc(Cl)cc1)c1nc(-c2ccccc2Br)oc1NCc1ccccc1,active: 10 µM,–,–
Cc1noc(C)c1-c1cc2cc(CO)oc2c(Nc2cccnc2)n1,"inconclusive: 10 µM [inhibitor, partial curve, poor fit]",–,–
CCOc1ccccc1CN1CCC2(CC1)CC(C(=O)N1CCOCC1)N(C)C2 (centres undefined),"inconclusive: 17.8 µM [inhibitor, single point]",–,–
O=C(c1cccc(=O)[nH]1)N1CC[C@@H](c2ccc3c(c2)OCO3)[C@H](O)C1,–,inactive: 27.6%,–
